# Data: article PMC4336329 (PLoS ONE, 2015)
# Screen size: about 310,000 compounds; about 2,200 (0.71%) showed an effect of 50% or more. Effects have a minus sign here. The list shows a part of the results.
# Biological target: human ether-à-go-go-related gene (hERG) potassium channel (human, UniProt Q12809)
# Assay: primary screen, population patch clamp on CHO cells stably expressing hERG
# human ether-à-go-go-related gene (hERG) potassium channel, sequence (Q12809 whole entry, looked up): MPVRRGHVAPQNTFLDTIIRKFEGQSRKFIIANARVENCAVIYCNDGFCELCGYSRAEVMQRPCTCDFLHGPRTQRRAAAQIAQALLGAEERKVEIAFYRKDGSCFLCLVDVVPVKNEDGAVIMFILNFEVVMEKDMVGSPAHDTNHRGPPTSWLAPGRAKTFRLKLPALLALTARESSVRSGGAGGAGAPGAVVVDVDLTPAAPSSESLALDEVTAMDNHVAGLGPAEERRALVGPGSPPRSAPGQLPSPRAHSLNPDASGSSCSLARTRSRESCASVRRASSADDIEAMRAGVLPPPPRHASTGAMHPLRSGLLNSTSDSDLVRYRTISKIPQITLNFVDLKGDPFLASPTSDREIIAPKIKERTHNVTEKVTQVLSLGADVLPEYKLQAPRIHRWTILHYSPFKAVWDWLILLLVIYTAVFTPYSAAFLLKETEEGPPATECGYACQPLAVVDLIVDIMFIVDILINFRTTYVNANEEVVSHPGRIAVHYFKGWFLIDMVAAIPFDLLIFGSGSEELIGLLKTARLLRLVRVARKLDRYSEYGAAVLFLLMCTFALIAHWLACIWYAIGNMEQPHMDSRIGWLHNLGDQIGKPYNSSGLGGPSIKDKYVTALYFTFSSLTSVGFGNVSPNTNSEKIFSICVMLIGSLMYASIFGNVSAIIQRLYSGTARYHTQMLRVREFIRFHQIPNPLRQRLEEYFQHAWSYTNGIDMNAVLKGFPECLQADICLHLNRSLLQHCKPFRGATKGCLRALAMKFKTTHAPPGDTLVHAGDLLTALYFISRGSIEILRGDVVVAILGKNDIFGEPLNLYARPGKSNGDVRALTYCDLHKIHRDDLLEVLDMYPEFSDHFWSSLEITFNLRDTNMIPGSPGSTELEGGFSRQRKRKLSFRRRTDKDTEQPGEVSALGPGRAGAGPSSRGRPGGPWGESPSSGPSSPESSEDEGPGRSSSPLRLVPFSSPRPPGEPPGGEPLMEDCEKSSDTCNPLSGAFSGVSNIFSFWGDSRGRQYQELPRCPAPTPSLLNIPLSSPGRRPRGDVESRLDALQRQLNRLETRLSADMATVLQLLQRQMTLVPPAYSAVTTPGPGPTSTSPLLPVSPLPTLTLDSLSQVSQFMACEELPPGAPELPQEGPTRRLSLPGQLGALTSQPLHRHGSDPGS
row,Compound,"hERG current change (%, negative = inhibition) at 1uM"
1,CCCn1c(CNC(=O)c2cccs2)nc2ccccc21,1.95%
2,CC(C)c1ccc(NC(=O)[C@@H]2CCC(=O)N2C2OC(=O)c3ccccc32)cc1 (some centres unmarked),5.85%
3,Br.O=C(Nc1ccc(F)cc1)C1=CC(=O)N2CCN=C2S1,13.7%
4,CCOC(=O)c1ccccc1NC(=O)CN(c1ccccc1OCC)S(C)(=O)=O,-0.936%
5,CCOC(=O)N1CCN(C(=O)c2nn(-c3cc(OC)cc(OC)c3)c(=O)c3ccccc23)CC1,14.6%
6,O=C1C2(c3ccccc3)CN(CCO)CC1(c1ccccc1)CN(CCO)C2,6.6%
7,CC(=O)c1ccc(N2CCN(C(=O)Cn3c(=S)[nH]c4ncccc4c3=O)CC2)cc1,12%
8,Cc1cccc(C)c1NC(=O)c1cccc(C(=O)Nc2c(C)cccc2C)n1,8.97%
9,COc1ccc(-c2nnc(NC(=O)CS(=O)(=O)c3ccc(F)cc3)o2)cc1,4.66%
10,O=C1CCCc2c1cc(C(=O)NCc1ccco1)c(=O)n2-c1ccccc1,3.55%
11,CC(C)C(C(=O)Nc1ccc2c(c1)OCCO2)N1C(=O)c2ccccc2C1=O (centres unmarked),10.1%
12,Cc1c(N2C(=O)CS/C2=N\N=C\c2ccccc2O)c(=O)n(-c2ccccc2)n1C,1.29%
13,CCOC(=O)NC(=O)CSc1ccccn1,12.4%
14,COCc1nnc(NC(=O)c2sc3ccccc3c2Cl)s1,2.19%
15,COc1ccc(OCC(=O)Nc2c(C)ccc3nsnc23)cc1,2.93%
16,O=C(Cn1cc(C(F)(F)F)ccc1=O)NCCc1ccc(Cl)cc1Cl,2.22%
17,Cc1cc(NC(=O)c2ccc(Cl)cc2)n(-c2ccccc2)n1,13.6%
18,O=C(O)c1cccc(-n2c(/C=C/c3ccccc3)nc3ccccc3c2=O)c1,5.76%
19,COc1cc(OC)cc(-c2oc3cccnc3c2C#CCCO)c1,9.75%
20,O=S(=O)(O)c1cccc(N=Nc2c(O)ccc3ccccc23)c1,10%
21,COc1ccc(S(=O)(=O)Nc2cc3c4c(c2)C(C)C(=O)N4CCC3)cc1OC (centres unmarked),8.91%
22,COc1ccc(NC(=O)CSc2nnc3n2CCCCC3)cc1,13.5%

row,Compound,"hERG current change (%, negative = inhibition) at 1uM"
1,Oc1ccccc1C=NCCCCCCN=Cc1ccccc1O,12.3%
2,Cc1cc(/C=C2/C(=O)NN(c3ccccc3)C2=O)c(C)n1-c1ccc(O)cc1,19.6%
3,CCCCNC(=O)C1CC(=O)N(C2CCCCC2)C1 (centres unmarked),4.45%
4,COc1ccccc1-c1cc(-c2ccc(O)cc2)nc(N)c1C#N,13.4%
5,O=c1cc(C(O)C[N+](=O)[O-])occ1OCc1ccccc1 (centres unmarked),2.6%
6,CCN(Cc1cn2cccnc2n1)C1CCCCC1,4.26%
7,Cn1c(CCCOc2ccc(Cl)cc2Cl)n[nH]c1=S,15.7%
8,Cc1ccc(-n2c(N)c(-c3nc4ccccc4n3C)sc2=S)cc1,6.94%
9,COc1ccc(CNC(=O)OCc2nccnc2C(=O)Nc2ccc(Br)cn2)cc1,-0.281%
10,O=C(Nc1ccnn1C1CCN(Cc2ccccc2OC(F)F)CC1)c1cccnc1,2.05%
11,Cc1nn(C(=O)c2cc([N+](=O)[O-])ccc2Cl)c(C)c1Br,14.5%
12,CC(C)CCNC(=O)C1C2C=CC3(CN(Cc4ccccc4Cl)C(=O)C13)O2 (centres unmarked),8.09%
13,Cc1ccc(NCc2n[nH]c(=S)n2-c2cccc(Cl)c2)cc1,14.4%
14,CN1C2C=C3C(C#N)=C(N)C(C#N)(C#N)[C@@H](c4cccc(F)c4)[C@@H]3C1CC2 (some centres unmarked),15.1%
15,COc1ccccc1N1CCN(CCN(C(=O)C2CCCCC2)c2ccccn2)CC1.O=C(O)/C=C\C(=O)O,4.2%
16,Cc1ccnc(NC(=O)c2ccc([N+](=O)[O-])o2)c1,13.4%
17,COc1ccc(O)c(/C=N/NC(=O)c2ccc(CSc3nc(C)cc(C)n3)cc2)c1,14.4%
18,O=C(OCC(=O)N(Cc1ccccc1)Cc1ccccc1)c1ccccc1NCCO,0.0935%
19,CCOc1cc2c(cc1OCC)-n1cccc1C(c1ccc(C(C)C)cc1)NC2.Cl (centres unmarked),18.6%
20,COc1ccnc(NCc2cccnc2)c1C#N,12.3%
21,CN1C(=O)C(CC(=O)Nc2ccccc2F)N(NC(=O)c2ccc(Br)cc2)C1=S (centres unmarked),12.4%
22,CCCCn1c(N)c(Sc2ccc(C)cc2)c(=O)[nH]c1=O,8.7%
